Shown are siRNA guide strands that differ only in the seed, positions 2 to 7.
Legend:
GL261 = experiment: cell viability relative to siNT1 (ATP content); H4 human neuroglioma and GL261 mouse glioma; higher = less toxic; details: siRNA concentration 25 nM; 96 h; mouse
H4 = experiment: as above; details: siRNA concentration 10 nM; 96 h; human
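Note: cells reverse transfected with siRNA duplexes via lipid reagent, ATP read by luminescence, triplicate wells, values scaled to mean viability with non-targeting control siNT1.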

Row | Sequence | cell viability (GL261) | cell viability (H4)
1 | UCGCGAGACAUGUAAACCA | 36% | 75.2%
2 | UCGCGAUACAUGUAAACCA | 35.4% | 120%
3 | UCGCGCAACAUGUAAACCA | 34.5% | 80.6%
4 | UCGCGCCACAUGUAAACCA | 17.3% | 44%
5 | UCGCGCGACAUGUAAACCA | 37.8% | 102%
6 | UCGCGCUACAUGUAAACCA | 23.7% | 83.7%
7 | UCGCGGAACAUGUAAACCA | 29.4% | 75.1%
8 | UCGCGGCACAUGUAAACCA | 3.47% | 33.5%
9 | UCGCGGGACAUGUAAACCA | 9.45% | 46.1%
10 | UCGCGGUACAUGUAAACCA | 28.4% | 62.9%
11 | UCGCGUAACAUGUAAACCA | 51.3% | 78.4%
12 | UCGCGUCACAUGUAAACCA | 48% | 63.4%
13 | UCGCGUGACAUGUAAACCA | 47.5% | 69.8%
14 | UCGCGUUACAUGUAAACCA | 55.5% | 108%
15 | UCGCUAAACAUGUAAACCA | 62.6% | 77.2%
16 | UCGCUACACAUGUAAACCA | 55.6% | 77.9%
17 | UCGCUAGACAUGUAAACCA | 45% | 77.9%
18 | UCGCUAUACAUGUAAACCA | 71.1% | 91%
19 | UCGCUCAACAUGUAAACCA | 41.5% | 88.5%
20 | UCGCUCCACAUGUAAACCA | 12.2% | 15.9%
21 | UCGCUCGACAUGUAAACCA | 40.7% | 83.8%
22 | UCGCUCUACAUGUAAACCA | 18.2% | 64.7%

Row | Sequence | cell viability (GL261) | cell viability (H4)
23 | UCGCUGAACAUGUAAACCA | 41.5% | 80.1%
24 | UCGCUGCACAUGUAAACCA | 11.5% | 73.1%
25 | UCGCUGGACAUGUAAACCA | 18.1% | 34.1%
26 | UCGCUGUACAUGUAAACCA | 16.1% | 98.6%
27 | UCGCUUAACAUGUAAACCA | 34% | 78.1%
28 | UCGCUUCACAUGUAAACCA | 28.2% | 60.3%
29 | UCGCUUGACAUGUAAACCA | 23.3% | 92.4%
30 | UCGCUUUACAUGUAAACCA | 18.7% | 111%
31 | UCGGAAAACAUGUAAACCA | 60.6% | 67.1%
32 | UCGGAACACAUGUAAACCA | 29.1% | 82%
33 | UCGGAAGACAUGUAAACCA | 34.4% | 93.9%
34 | UCGGAAUACAUGUAAACCA | 63.8% | 87%
35 | UCGGACAACAUGUAAACCA | 33.6% | 66.9%
36 | UCGGACCACAUGUAAACCA | 16.4% | 59.8%
37 | UCGGACGACAUGUAAACCA | 25.7% | 53.6%
38 | UCGGACUACAUGUAAACCA | 11.4% | 48.9%
39 | UCGGAGAACAUGUAAACCA | 63.2% | 55%
40 | UCGGAGCACAUGUAAACCA | 25.1% | 11%
41 | UCGGAGGACAUGUAAACCA | 21.5% | 22.9%
42 | UCGGAGUACAUGUAAACCA | 27% | 50.5%
43 | UCGGAUAACAUGUAAACCA | 40.3% | 72.4%
44 | UCGGAUCACAUGUAAACCA | 19.4% | 35.4%

Row | Sequence | cell viability (GL261) | cell viability (H4)
45 | UCGGAUGACAUGUAAACCA | 89.4% | 75.5%
46 | UCGGAUUACAUGUAAACCA | 40.8% | 77.3%
47 | UCGGCAAACAUGUAAACCA | 34.7% | 110%
48 | UCGGCACACAUGUAAACCA | 19.5% | 38%
49 | UCGGCAGACAUGUAAACCA | 18.2% | 47%
50 | UCGGCAUACAUGUAAACCA | 14.3% | 78.4%
51 | UCGGCCAACAUGUAAACCA | 37.2% | 68.8%
52 | UCGGCCCACAUGUAAACCA | 10.1% | 41.8%
53 | UCGGCCGACAUGUAAACCA | 23.4% | 57.1%
54 | UCGGCCUACAUGUAAACCA | 23.4% | 37.9%
55 | UCGGCGAACAUGUAAACCA | 13.3% | 88.9%
56 | UCGGCGCACAUGUAAACCA | 7.5% | 28.6%
57 | UCGGCGGACAUGUAAACCA | 8.41% | 6.07%
58 | UCGGCGUACAUGUAAACCA | 9.29% | 55.3%
59 | UCGGCUAACAUGUAAACCA | 27.8% | 72.7%
60 | UCGGCUCACAUGUAAACCA | 5.96% | 22.6%
61 | UCGGCUGACAUGUAAACCA | 25.2% | 60.6%
62 | UCGGCUUACAUGUAAACCA | 25.9% | 49.2%
63 | UCGGGAAACAUGUAAACCA | 44.1% | 74.8%
64 | UCGGGACACAUGUAAACCA | 34.6% | 53.9%
65 | UCGGGAGACAUGUAAACCA | 43.6% | 79.3%
66 | UCGGGAUACAUGUAAACCA | 18.2% | 59.7%

Row | Sequence | cell viability (GL261) | cell viability (H4)
67 | UCGGGCAACAUGUAAACCA | 16.7% | 46.3%
68 | UCGGGCCACAUGUAAACCA | 4.42% | 4.55%
69 | UCGGGCGACAUGUAAACCA | 33.5% | 45.8%
70 | UCGGGCUACAUGUAAACCA | 10.5% | 6.64%
71 | UCGGGGAACAUGUAAACCA | 34.3% | 23.7%
72 | UCGGGGCACAUGUAAACCA | 11.1% | 2.38%
73 | UCGGGGGACAUGUAAACCA | 16.4% | 3.79%
74 | UCGGGGUACAUGUAAACCA | 14.8% | 3.88%
75 | UCGGGUAACAUGUAAACCA | 47.1% | 85.3%
76 | UCGGGUCACAUGUAAACCA | 6.64% | 10.6%
77 | UCGGGUGACAUGUAAACCA | 33.8% | 80.3%
78 | UCGGGUUACAUGUAAACCA | 45% | 82.1%
79 | UCGGUAAACAUGUAAACCA | 64.6% | 71.9%
80 | UCGGUACACAUGUAAACCA | 36.7% | 55.6%
81 | UCGGUAGACAUGUAAACCA | 51.7% | 87.4%
82 | UCGGUAUACAUGUAAACCA | 112% | 77.4%
83 | UCGGUCAACAUGUAAACCA | 31.7% | 57.6%
84 | UCGGUCCACAUGUAAACCA | 6.42% | 26%
85 | UCGGUCGACAUGUAAACCA | 28.4% | 53.5%
86 | UCGGUCUACAUGUAAACCA | 19.2% | 23.2%
